Sequences with one replicate were seen in a single cluster, so their values are uncertain.
System: ATP
Experiment: switch fluorescence ratio, 500 uM ATP over buffer (Cy3 cluster intensity, sum of 5 cycles each) (fold (ratio)); higher = stronger signal-on switching upon ATP binding; sequences stand for … in TCGTCGGCAGCGTCAGATGTGTATAAGAGACAGTTTTTTTTTTTTTTTTTTTTTTTTT…TC
Details: aptamer strand: ATP DNA aptamer (quencher-CACCTGGGGGAGTATTGCGGAGGAAGG + anchor), 100 nM annealed; ATP concentration: 500 uM; one replicate
Summary of the method: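 After annealing to 100 nM quencher-labelled ATP aptamer, Cy3-labelled switching-strand clusters on a modified Illumina MiSeq flow-cell were imaged in selection buffer. A second image followed after 15 min with 500 uM ATP at 22 °C, and five such buffer/ATP cycles were done, each separated by NaOH stripping and re-annealing. The fluorescence ratio, averaged per switch-domain sequence, is summed target-cycle over summed buffer-cycle Cy3 intensity per cluster, with clusters outside 100-1000 RFU excluded.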
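Also: ATP exposure 15 min at 22 °C before imaging.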

Row | Sequence | switch fluorescence ratio
1 | TGTCACAGAC | 1.03
2 | TCGGGTGATC | 1.01
3 | TCATTACTTT | 1.02
4 | TGTCGGTCGC | 0.926
5 | TGATTACGAT | 1.03
6 | GAAGCTATGA | 1.2
7 | CAGCGATGCG | 1.16
8 | TTAGGAGAGT | 0.974
9 | ACTTAGATGT | 1.05
10 | AGTAAATAGG | 0.965
11 | TTGGAACGGT | 1.02
12 | TGAGTACCGT | 1
13 | AGGGACGCCG | 1.05
14 | TGACTGTGGT | 0.981
15 | ACAGAGACTG | 1.03
16 | ATTTGAGTAC | 1.04
17 | GGGTACCAAT | 0.964
18 | TCTTCAGTAA | 1.26
19 | GACCGAGGGA | 0.983
20 | CGTAGAAACA | 1.02
21 | GCTAGCACAG | 1.01
22 | ATGGCCACTA | 0.99
23 | AGTCCACGG | 1.07
24 | TGCTATATAG | 0.991
25 | AAGTTATCCA | 1.01
26 | CGCCGTGTAA | 0.974

Row | Sequence | switch fluorescence ratio
27 | CACCGCCCGT | 1.23
28 | ATATTT | 1
29 | ATATGGGGG | 0.959
30 | CGCTACCTCA | 1.56
31 | TTTACCCAAT | 1.03
32 | GAATCTTGTA | 0.99
33 | TACTTTTAG | 0.887
34 | GGACTGGTAC | 1.09
35 | GGGGGACACG | 0.97
36 | ATTCGTAATG | 1.04
37 | GTCACCGTCG | 1.01
38 | CTTGCCGACT | 1.08
39 | GGAAAAATAA | 0.989
40 | TGTCCTCCGA | 1.58
41 | ATGGGGGTC | 1.02
42 | GAATTGCAGG | 1.03
43 | GGGCAGCAGA | 1.04
44 | CTTAGATCAG | 1
45 | TAGAAGGATA | 0.947
46 | CGCATCCTTA | 1.06
47 | GTGCTAAAAA | 0.962
48 | GAACTAAATT | 1
49 | TCGGCGTATT | 0.982
50 | GATGATAGAG | 1
51 | GGATTTTAGT | 0.96
52 | TGGCCGCCTT | 1.01

Row | Sequence | switch fluorescence ratio
53 | ATAAAGACGG | 1.02
54 | AATGAAGTAG | 0.935
55 | TCTCTGCGGG | 1.05
56 | TGCAAACGTT | 1.05
57 | TGTATTTGGA | 1.02
58 | TGGGCATAGC | 0.964
59 | GATAGGTTAT | 0.953
60 | CAGTCTGCGG | 0.973
61 | GTTTCTTTTT | 1.02
62 | TTGGTTACCG | 1.02
63 | GCTCCACCCA | 1.19
64 | TTCGAACAGA | 1.07
65 | AATAGAATAG | 0.996
66 | CCGGGTACAT | 1.08
67 | TATACCACAC | 1.4
68 | CTCGTTGTAA | 1
69 | TTCAGATATT | 0.99
70 | ACAGTGTCGG | 1.01
71 | GCGATAGTCT | 1
72 | TGAGTTAGCA | 0.978
73 | ATAGGAAACT | 0.984
74 | AGGCGACTCC | 1.11
75 | GGGCTGAATA | 0.974
76 | AATATCGTGT | 0.94
77 | CTTACTCTCC | 0.992
78 | CTGGGGTCTT | 0.966

Row | Sequence | switch fluorescence ratio
79 | ATCGATCTGT | 0.987
80 | AGACGCAGGC | 1.11
81 | CTAGCGGCGC | 0.93
82 | TAACGTAAC | 1.45
83 | AGTACATAGG | 1.11
84 | TGGTCTTGTT | 0.963
85 | CTACGTATTG | 1.2
86 | AGTACTGGGA | 0.975
87 | ATTTCGTACC | 1.05
88 | CCTGTTAAGG | 0.938
89 | CACAAGGCAT | 1.75
90 | GCCCGACTTT | 0.966
91 | TTCGGGACAG | 0.998
92 | TCCTGGTGCA | 1.36
93 | GTGCTTGTTG | 0.994
94 | CTGTACATG | 0.964
95 | CTCACTGCT | 1.02
96 | GGTGTAGACC | 0.99
97 | AGGAGTATAA | 0.951
98 | AGTGTGGCGT | 1.07
99 | AGGCGTCCA | 1.02
100 | AGGCAAGCTA | 1.09
101 | AAGGGGTCCC | 0.932

— the supplement of paper PMC10126150
